Test results taken from the supplement of paper PMC12462457.
Where a name gives a salt, the structure may show the parent alone. ± gives the standard deviation of the averaged measurements. The list shows a part of the results.

Tested on: OVCAR8
Experiment: cell count relative to DMSO vehicle (fold change); OVCAR8 is a high-grade serous ovarian cancer line and CX-5461 an RNA polymerase I inhibitor; higher = more surviving senescent cells (less killing)
Conditions: senescence inducer: CX-5461 3 µM 48 h, then 6 d recovery (CX senescent), exposure time 24 h

| SMILES | cell count (compound dose 1 µM) | cell count (compound dose 5 µM) |
| --- | --- | --- |
| CN(C)CCCCC(=O)Nc1ccc(NC(=S)NC(=O)c2ccc(C(C)(C)C)cc2)cc1 [Tenovin-6] | 1.02 ± 0.11 | 0.935 ± 0.016 |
| COc1cc2ncnc(Nc3ccc(F)c(Cl)c3)c2cc1OCCCN1CCOCC1 [Gefitinib (ZD1839)] | 1.06 ± 0.082 | 1.12 ± 0.12 |
| CN[C@@H](C)C(=O)N[C@H](C(=O)N1CCC[C@H]1C(=O)Nc1sc(-c2ncco2)nc1-c1ccccc1)C1CCCCC1 | 0.649 ± 0.1 | 0.676 ± 0.074 |
| COC(=O)[C@]12CCC(C)(C)C[C@H]1[C@H]1C(=O)C=C3[C@@]4(C)C=C(C#N)C(=O)C(C)(C)[C@@H]4CC[C@@]3(C)[C@]1(C)CC2 [Bardoxolone methyl] | 0.899 ± 0.074 | 0.007 ± 0.0014 |
| Cc1cc(Nc2nc(N[C@@H](C)c3ccc(F)cc3)c(C#N)cc2F)n[nH]1 | 1.21 ± 0.19 | 0.756 ± 0.12 |
| N[C@@H](CCC(=O)Nc1ccc([N+](=O)[O-])cc1)C(=O)O [GPNA (hydrochloride)] | 0.899 ± 0.028 | 0.775 ± 0.22 |
| CC(C)c1ccc2c(c1)c(SC(C)(C)C)c(CC(C)(C)C(=O)O)n2Cc1ccc(Cl)cc1 | 1.09 ± 0.13 | 1.11 ± 0.11 |
| CCN1CCN(Cc2ccc(-c3cc4c(N[C@H](C)c5ccccc5)ncnc4[nH]3)cc2)CC1 | 0.833 ± 0.0099 | 0.366 ± 0.061 |
| Cc1nc(Nc2ncc(C(=O)Nc3c(C)cccc3Cl)s2)cc(N2CCN(CCO)CC2)n1 [Dasatinib] | 0.0155 ± 0.0064 | 0.0205 ± 0.0021 |
| COc1cc(N2CCC(N3CCN(C)CC3)CC2)ccc1Nc1ncnc(Nc2ccccc2S(=O)(=O)C(C)C)n1 | 1.17 ± 0.12 | 1.07 ± 0.21 |
| CN1C(=O)[C@@H](NC(=O)c2n[nH]c(Cc3ccccc3)n2)COc2ccccc21 | 1.1 ± 0.076 | 1.15 ± 0.057 |
| Cc1cc(=O)oc2c(O)c(O)ccc12 | 1.04 ± 0.058 | 1.1 ± 0.079 |
| CC(C)(C)c1ccc(C(O)CCCN2CCC(C(O)(c3ccccc3)c3ccccc3)CC2)cc1 (stereo not given) | 1.11 ± 0.16 | 0.844 ± 0.084 |
| CC(C)(c1ccc(OCC(O)CO)cc1)c1ccc(OCC(O)CCl)cc1 (stereo not given) | 1.04 ± 0.29 | 1.05 ± 0.29 |
| CCOC(=O)c1[nH]c2cc(Cl)ccc2c1C(C(=O)NC(C)(C)C)N(C=O)Cc1ccc(Cl)cc1 (stereo not given) | 0.994 ± 0.12 | 1.11 ± 0.15 |
| CNCCN(C)Cc1c[nH]nc1-c1ccc(O[C@H]2C[C@H](OCCC3CCOCC3)C2)cc1 | 1.19 ± 0.4 | 1.12 ± 0.34 |
| CN(C)CC#Cc1ccc(OCCCc2sc(N3CCc4cccc(C(=O)Nc5nc6ccccc6s5)c4C3)nc2C(=O)O)c(F)c1 | 1.05 ± 0.2 | 1.07 ± 0.23 |
| C=C(C)[C@@H](CC=C(C)C)C[C@@]12C[C@@H](CC=C(C)C)C(C)(C)[C@@](CC=C(C)C)(C(=O)C(C(=O)c3ccc(O)c(O)c3)=C1O)C2=O [Garcinol] | 1.14 ± 0.033 | 1.02 ± 0.14 |
| COc1ccc(C[C@@H]2c3cc(Oc4cc(C[C@@H]5c6cc(OC)c(OC)cc6CCN5C)ccc4O)c(OC)cc3CCN2C)cc1 [Neferine] | 1.26 ± 0.37 | 1.24 ± 0.42 |
| CC1(C)C(=O)N([C@H]2CCc3c(O)cccc32)c2nc(Nc3cccc(CN4CCCC4)c3)ncc21 | 1.1 ± 0.072 | 0.335 ± 0.023 |
| Cc1[nH]c2ccccc2c1CCNCc1ccc(/C=C/C(=O)NO)cc1 [Panobinostat (LBH589)] | 0.626 ± 0.04 | 0.469 ± 0.08 |
| COc1ccnc(C[S+]([O-])c2nc3cc(OC(F)F)ccc3[nH]2)c1OC (stereo not given) [Pantoprazole (sodium)] | 0.995 ± 0.047 | 1.02 ± 0.15 |
| COc1ccnc(C[S+]([O-])c2nc3cc(OC(F)F)ccc3[nH]2)c1OC (stereo not given) [Pantoprazole (sodium hydrate)] | 1 ± 0.11 | 1.1 ± 0.2 |
| Nc1ccn([C@@H]2O[C@H](CO)[C@@H](O)[C@@H]2O)c(=O)n1 [Cytarabine] | 1.07 ± 0.32 | 1.02 ± 0.43 |
| COc1ccc(-c2coc3cc(O)ccc3c2=O)cc1O [Calycosin] | 1.17 ± 0.27 | 1.2 ± 0.41 |
| CN(Cc1cnc2nc(N)nc(N)c2n1)c1ccc(C(=O)N[C@@H](CCC(=O)O)C(=O)O)cc1 [Methotrexate (disodium)] | 1.08 ± 0.22 | 1.028 ± 0.0092 |
| CN(Cc1cnc2nc(N)nc(N)c2n1)c1ccc(C(=O)N[C@@H](CCC(=O)O)C(=O)O)cc1 [Methotrexate] | 1.17 ± 0.21 | 1.11 ± 0.26 |
| CCCC[C@@H](C=O)NC(=O)[C@H](CC(C)C)NC(=O)[C@H](CC(C)C)NC(C)=O | 1.12 ± 0.1 | 1.17 ± 0.045 |
| Nc1nc(NC2CC2)c2ncn([C@H]3C=C[C@@H](CO)C3)c2n1 | 1.13 ± 0.028 | 1.17 ± 0.076 |
| Nc1nc(NC2CC2)c2ncn([C@H]3C=C[C@@H](CO)C3)c2n1 [Abacavir] | 0.971 ± 0.09 | 0.949 ± 0.069 |
